# Where “and” joins values, the source holds several entries; their conditions need not be identical. Equal entries are not always repeated. Whole data set: some 5,300 compounds, median “PER2::LUC luminescence relative to vehicle control” near 0.96, cut for the highest 2% near 1.3. The list shows a part of the results.
# Tested on: mPer2Luc MEF
# Test: PER2::LUC luminescence relative to vehicle control (fold of vehicle); higher = higher PER2::LUC reporter signal
# Conditions: 10 µM
# Procedure, shortened: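 Compounds from commercial libraries were added at 10 μM to 384-well plates seeded 48 h earlier with ~3000 mPer2Luc mouse embryonic fibroblasts per well. The cells were kept in DMEM with 10% FBS at 37 °C and 5% CO2. Luminescence was read with ONE-Glo 24 h and 30 h after treatment, then an alamarBlue viability assay was run. Values are PER2::LUC luminescence relative to vehicle control, as fold change.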
structure (smiles),measurement,setting,value
O=C(CCCN1CCN(c2ccccn2)CC1)c1ccc(F)cc1,PER2::LUC luminescence,time after treatment 24 h,1
same,PER2::LUC luminescence,time after treatment 30 h,0.792
Cc1cc(NC(=O)Nc2ccc3c(ccn3C)c2)sn1,PER2::LUC luminescence,time after treatment 24 h,1.59
same,PER2::LUC luminescence,time after treatment 30 h,1.52
O=C(Nc1ccncc1)c1cc([N+](=O)[O-])ccc1Cl,PER2::LUC luminescence,time after treatment 24 h,1.18
same,PER2::LUC luminescence,time after treatment 30 h,1.22
CCCCC/C=C/C=C1/C(=O)C=C[C@@H]1C/C=C\CCCC(=O)O,PER2::LUC luminescence,time after treatment 24 h,1.08
same,PER2::LUC luminescence,time after treatment 30 h,0.962
NC[C@@H]1O[C@@H](O[C@H]2[C@H](O)[C@@H](O[C@H]3O[C@H](CO)[C@@H](O)[C@H](N)[C@H]3O)[C@H](N)C[C@@H]2N)[C@@H](O)[C@H](O)[C@H]1O,PER2::LUC luminescence,time after treatment 24 h,0.914
same,PER2::LUC luminescence,time after treatment 30 h,0.881
COCCCN1CCC(NC(=O)c2cc(Cl)c(N)c3c2OCC3)CC1,PER2::LUC luminescence,time after treatment 24 h,1.01
same,PER2::LUC luminescence,time after treatment 30 h,0.976
N[C@@H](CS(=O)O)C(=O)O,PER2::LUC luminescence,time after treatment 24 h,1.13
same,PER2::LUC luminescence,time after treatment 30 h,0.928
C[C@@H](CN1CCC(Cc2ccccc2)CC1)[C@@H](O)c1ccc(O)cc1,PER2::LUC luminescence,time after treatment 24 h,0.832
same,PER2::LUC luminescence,time after treatment 30 h,0.874
CNc1nc(Nc2cn(C(C)(C)C#N)nc2C)ncc1C(F)(F)F,PER2::LUC luminescence,time after treatment 24 h,1.01
same,PER2::LUC luminescence,time after treatment 30 h,1.03
CC1CC(OC(=O)c2ccccc2O)CC(C)(C)C1 (stereo not drawn),PER2::LUC luminescence,time after treatment 24 h,1.19
same,PER2::LUC luminescence,time after treatment 30 h,0.857
C=CC(=O)N1C/C(=C\c2ccc([N+](=O)[O-])cc2)C(=O)/C(=C/c2ccc([N+](=O)[O-])cc2)C1,PER2::LUC luminescence,time after treatment 24 h,0.912
same,PER2::LUC luminescence,time after treatment 30 h,0.857
COC(=O)[C@H](NC(=O)c1cc(-c2ccccc2)nc2ccccc12)c1ccccc1,PER2::LUC luminescence,time after treatment 24 h,1.05
same,PER2::LUC luminescence,time after treatment 30 h,0.83
COC(=O)C1=C(C#N)NC(C)=C(C(=O)OC(C)C)C1c1cccc([N+](=O)[O-])c1 (stereo not drawn),PER2::LUC luminescence,time after treatment 24 h,1.02
same,PER2::LUC luminescence,time after treatment 30 h,0.893
N#Cc1cc2nc(O)c(O)nc2cc1[N+](=O)[O-],PER2::LUC luminescence,time after treatment 24 h,0.923
same,PER2::LUC luminescence,time after treatment 30 h,0.774
COc1ccc(C2CC(=O)c3c(O)cc(OC4OC(COC5OC(C)C(O)C(O)C5O)C(O)C(O)C4O)cc3O2)cc1OC (stereo not drawn),PER2::LUC luminescence,time after treatment 24 h,0.918
same,PER2::LUC luminescence,time after treatment 30 h,0.791
CN(C)C(=O)[C@H](O)[C@H](Cc1ccccc1)NC(=O)c1cc2cc(Cl)ccc2[nH]1,PER2::LUC luminescence,time after treatment 24 h,1.1
same,PER2::LUC luminescence,time after treatment 30 h,1.07
O=C(Oc1cc(S(=O)(=O)c2ccccc2)ccc1[N+](=O)[O-])c1ccc(Cl)cc1,PER2::LUC luminescence,time after treatment 24 h,1
same,PER2::LUC luminescence,time after treatment 30 h,0.99
CCC(=O)NC1Cc2ccccc2C(c2ccccc2)C1 (stereo not drawn),PER2::LUC luminescence,time after treatment 24 h,0.844
same,PER2::LUC luminescence,time after treatment 30 h,0.992
Cc1cc(CN2CCN(c3c(Br)cnc4nc(-c5ccc(N6CCN(C)CC6)cc5)[nH]c34)CC2)no1,PER2::LUC luminescence,time after treatment 24 h,0.462
same,PER2::LUC luminescence,time after treatment 30 h,0.367
CC(=O)/C=C1/C(=O)N(C)c2ccccc21,PER2::LUC luminescence,time after treatment 24 h,0.94
same,PER2::LUC luminescence,time after treatment 30 h,0.79
CCN1CCN(Cc2ccc(C(=O)Nc3ccc(C)c(Oc4ccc5c(c4)CC(=O)N5)c3)cc2C(F)(F)F)CC1,PER2::LUC luminescence,time after treatment 24 h,0.251
same,PER2::LUC luminescence,time after treatment 30 h,0.3
COc1cc(N2CCOCC2)ccc1Nc1ncc(F)c(Nc2ccccc2NS(C)(=O)=O)n1,PER2::LUC luminescence,time after treatment 24 h,0.771
same,PER2::LUC luminescence,time after treatment 30 h,0.673
N[C@@H](Cc1cc(I)c(Oc2ccc(O)c(I)c2)c(I)c1)C(=O)O,PER2::LUC luminescence,time after treatment 24 h,1.11 and 0.582
same,PER2::LUC luminescence,time after treatment 30 h,1.19 and 1.01
CN1CCC(=C2c3ccccc3Sc3ccccc32)CC1,PER2::LUC luminescence,time after treatment 24 h,0.763
same,PER2::LUC luminescence,time after treatment 30 h,0.771
COC1=CC(=O)C(C(=O)c2ccccc2)=CC1=O,PER2::LUC luminescence,time after treatment 24 h,1.03
same,PER2::LUC luminescence,time after treatment 30 h,1.08
Cc1ccc(=O)n(-c2ccccc2)c1,PER2::LUC luminescence,time after treatment 24 h,0.986
same,PER2::LUC luminescence,time after treatment 30 h,1
NCCCCCCCCCCNCCCN,PER2::LUC luminescence,time after treatment 24 h,0.962
same,PER2::LUC luminescence,time after treatment 30 h,0.892
COc1ccccc1N1CCN(CCN(C(=O)c2ccc(F)cc2)c2ccccn2)CC1,PER2::LUC luminescence,time after treatment 24 h,0.998
same,PER2::LUC luminescence,time after treatment 30 h,1.09
c1ccc(-c2ccccn2)nc1,PER2::LUC luminescence,time after treatment 24 h,1.08
same,PER2::LUC luminescence,time after treatment 30 h,0.883
O=C(O)c1ccc2c(c1)nc(Nc1cccc(Cl)c1)c1ccncc12,PER2::LUC luminescence,time after treatment 24 h,0.795
same,PER2::LUC luminescence,time after treatment 30 h,1.39
CC1(C)O[C@@H]2C[C@H]3[C@@H]4CCC5=CC(=O)C=C[C@]5(C)[C@H]4[C@@H](O)C[C@]3(C)[C@]2(C(=O)CO)O1,PER2::LUC luminescence,time after treatment 24 h,0.604
same,PER2::LUC luminescence,time after treatment 30 h,1.01
C/C=C/C[C@@H](C)C(=O)[C@H]1C(=O)N[C@@H](C(C)C)C(=O)N(C)CC(=O)N(C)[C@@H](CC(C)C)C(=O)N[C@@H](C(C)C)C(=O)N(C)[C@@H](CC(C)C)C(=O)N[C@@H](C)C(=O)N[C@H](C)C(=O)N(C)[C@@H](CC(C)C)C(=O)N(C)[C@@H](CC(C)C)C(=O)N(C)[C@@H](C(C)C)C(=O)N1C,PER2::LUC luminescence,time after treatment 24 h,0.986
same,PER2::LUC luminescence,time after treatment 30 h,0.991
C[C@H](N)C(=O)N[C@@]1(C(=O)O)C[C@@H](Sc2nnc[nH]2)[C@H]2[C@H](C(=O)O)[C@H]21,PER2::LUC luminescence,time after treatment 24 h,1.01
same,PER2::LUC luminescence,time after treatment 30 h,0.993
COc1ccc(C=CC(=O)O)cc1OC,PER2::LUC luminescence,time after treatment 24 h,1.07
same,PER2::LUC luminescence,time after treatment 30 h,0.969
NCCCCCNCC12CC3CC(CC(C3)C1)C2,PER2::LUC luminescence,time after treatment 24 h,0.956
same,PER2::LUC luminescence,time after treatment 30 h,0.918
CCN(CC)CCOc1ccc2c(c1)C(=O)c1cc(OCCN(CC)CC)ccc1-2,PER2::LUC luminescence,time after treatment 24 h,0.704 and 0.553
same,PER2::LUC luminescence,time after treatment 30 h,0.781 and 0.595
Oc1ccc(Cn2cc[nH]c2=S)cc1,PER2::LUC luminescence,time after treatment 24 h,0.892
same,PER2::LUC luminescence,time after treatment 30 h,0.875
CCc1ccc2c(-c3cccc(Cl)c3)nc(=O)n(CC)c2n1,PER2::LUC luminescence,time after treatment 24 h,1.03
same,PER2::LUC luminescence,time after treatment 30 h,0.944
O=C(CCCCCCC(=O)Nc1ccccc1)NO,PER2::LUC luminescence,time after treatment 24 h,0.271
same,PER2::LUC luminescence,time after treatment 30 h,0.329

# From the supplement of paper PMC9334596
